Hit rate of the full screen: of about 360,000 compounds, about 11,000 (3.1%) were called active. Inconclusive means that the source gave no clear call. Such entries were picked first, then a sample of the others. Calls follow the shape of the dose curve; as a rule, active = well fitted inhibition curve with a large enough effect; inconclusive = small, poorly fitted or top-dose-only effect; inactive = no such curve, though single readings can be large or run the other way. Potencies of inconclusive entries are left out as doubtful fits.
Each compound was assayed against Schistosoma mansoni thioredoxin glutathione reductase (TGR) (UniProt Q962Y6) (assay: qHTS Assay for the Inhibitors of Schistosoma Mansoni Peroxiredoxins). Details: purified TGR, DTNB reduction, TNB absorbance 405 nm; activity change, negative = inhibition: at 114 µM (top of the series) unless noted.
How it was run: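 Kinetic colorimetric format: TGR-catalysed, NADPH-driven DTNB reduction monitored via TNB absorbance. Enzyme dispensed at 20 nM; compound exposure 15 min at room temperature before reaction start.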
For Cn1c(=O)oc2cc(S(=O)(=O)NCc3ccco3)ccc21, the Potency was inconclusive [inhibitor, partial curve].
With O=C(NCc1ccccn1)c1ccc(Cn2cc(Br)cn2)o1 the Potency was inconclusive [inhibitor, partial curve].
Cc1c(N=NC2=C(O)CC(C)(C)CC2=O)c(=O)n(-c2ccccc2)n1C was tested, and the Potency was active: 12.6 µM.
For Cc1ccccc1-c1nc(CS(=O)CC(=O)NCc2ccc3c(c2)OCO3)c(C)o1 (stereo unspecified), the Potency was inconclusive [inhibitor, partial curve].
N#Cc1cc(Oc2cccc3cccnc23)c(-n2nnc3ccccc32)cc1C#N was tested, and the Potency was inconclusive [inhibitor, partial curve].
With CN(C)/C=C(\C=O)c1onc(-c2ccccc2Cl)c1C#N the Potency was inconclusive [inhibitor, partial curve].
With COc1ccc(/C=N/n2c(-c3cccs3)n[nH]c2=S)cc1 the Potency was inconclusive [inhibitor, full curve, poor fit].
In the case of Cc1[nH]c2ccccc2c1C(c1ccncc1)N1CCN(c2ccccn2)CC1 (stereo unspecified), the Potency was active: 1 µM.
For Cc1cc(SCC(=O)N/N=C/c2ccco2)nc2ccccc12, the Potency was inconclusive [inhibitor, full curve, poor fit].
CC(=O)N1c2ccccc2CC1C(=O)N1CCN(c2ccc(F)cc2)CC1 (stereo unspecified) was tested, and the “activity change, negative = inhibition” value was inactive: 1.54%.
With Cc1nc2c(S(=O)(=O)c3ccccc3)cnn2c(C)c1C the Potency was inconclusive [inhibitor, single point].
In the case of c1coc(CNc2nc(N3CCCCC3)nc3ccccc23)c1, the Potency was inconclusive [inhibitor, partial curve].
With O=C(NC1(C(F)(F)F)C(=O)Nc2c1c(=O)[nH]c(=O)n2Cc1ccccc1)c1ccc(Cl)cc1Cl (stereo unspecified) the Potency was inconclusive [inhibitor, partial curve].
For CN(C)c1ccc(/C=C/c2ccc3c4ccccc4ccc3[n+]2-c2ccccc2)cc1, the Potency was inconclusive [inhibitor, single point].
CCOC(=O)c1noc2ncnc(N3CCN(c4ccccc4OC)CC3)c12 was tested, and the “activity change, negative = inhibition” value was inactive: 3.98%.
For CCNC(=O)c1ccc2c(c1)nc1n2CCCCC1, the Potency was inconclusive [inhibitor, single point].
With CCOC(=O)c1cnc(SSc2ncc(C(=O)OCC)c(N)n2)nc1N the Potency was active: 50.1 µM.
With CC1CCCCN1CCNC(=O)c1ccc2c(=O)n(Cc3ccc(Cl)cc3)c(=S)[nH]c2c1 (stereo unspecified) the “activity change, negative = inhibition” value was inactive: -5.87%.
Clc1ccc(-c2nc3nc4ccccc4nc3n2Cc2ccco2)cc1 was tested, and the Potency was active: 20 µM.
With COc1ccc(-n2c(Cc3cccn3C)nnc2SCC(=O)Nc2nccs2)cc1 the Potency was inconclusive [inhibitor, partial curve].
For O=c1[nH]c2ccccc2cc1-c1nnn(-c2ccc(F)cc2)n1, the Potency was inconclusive [inhibitor, partial curve].
Cc1ccc(Cl)cc1NC(=O)CSc1nc2ccccc2c2nc(-c3ccccc3)nn12 was tested, and the “activity change, negative = inhibition” value was inactive: -6.27%.
With CC(C)CN1CCN(Cc2cn(C)c3ccccc23)CC1CCO (stereo unspecified) the Potency was active: 89.1 µM.
With COc1ccc2c(c1)[n+](=O)c(C(C)=O)c(C)n2[O-] the Potency was inconclusive [inhibitor, partial curve].
In the case of CCCc1nc2ccccc2c(=O)n1-c1c(C)n(C)n(-c2ccccc2)c1=O, the “activity change, negative = inhibition” value was inactive: 22%.
In the case of COc1ccc(OC)c(NC(=O)Cn2c(=O)c3cccn3c3ccccc32)c1, the “activity change, negative = inhibition” value was inactive: 1%.
For CC(C)(C)C(=O)COc1ccccc1[N+](=O)[O-], the “activity change, negative = inhibition” value was inactive: 2.09%.
In the case of O=C(CCn1c(=O)c2cccn2c2cccnc21)NCc1ccccc1Cl, the Potency was inconclusive [inhibitor, single point].
For O=c1[nH]c(CN(CCO)CCO)nc2c1C1(CCCCC1)Cc1ccccc1-2, the Potency was inconclusive [inhibitor, single point].
For CC(C)C[C@@H](CSc1ccc(Br)cc1)N1CCN(CCc2ccccc2)CCC1=O, the Potency was inconclusive [inhibitor, partial curve].
For O=C(O)CSC1CC(=O)N(c2ccc(Br)cc2)C1=O (stereo unspecified), the Potency was active: 44.7 µM.
For CCc1cccc(NC(=O)CSc2nncn3c2cc2sccc23)c1, the “activity change, negative = inhibition” value was inactive: -4.61%.
For Cn1nnc(NC(=S)NC(=O)c2cc(Cl)ccc2Cl)n1, the Potency was inconclusive [inhibitor, partial curve].
In the case of CCN(CC)c1ccc(/C=C2\CCC(/C=N/NC(=O)c3ccc(=O)n(C)c3)=C2N2CCOCC2)cc1, the “activity change, negative = inhibition” value was inactive: -19.7%.
CCCc1nnc(NC(=O)c2cc(=O)c3ccccc3o2)s1 was tested, and the “activity change, negative = inhibition” value was inactive: -0.704%.
For CC(C)(C)C(=O)OCc1nc(-c2ccc(O)c(O)c2)cs1, the Potency was inconclusive [inhibitor, partial curve].
Cc1ccc(Nc2nc(-c3ccc(C)cc3)c(CC(=O)O)s2)cc1 was tested, and the Potency was inconclusive [inhibitor, single point].
Cn1cc(C(=O)N/N=C/C(Br)=C/c2ccccc2)ccc1=O was tested, and the Potency was inconclusive [inhibitor, partial curve, poor fit].
In the case of FC(F)(F)c1ccc2c3n(nc2c1)CCN=C3c1ccc(Cl)cc1, the Potency was inconclusive [inhibitor, partial curve].
O=C(/C=C/c1ccco1)N/C(=C\c1ccco1)C(=O)NCCc1nc2ccccc2[nH]1 was tested, and the Potency was active: 15.8 µM.
In the case of O=C(CCC1CCN(C(=O)c2cc(C(F)(F)F)ccc2Cl)CC1)NC1CC1, the Potency was inconclusive [inhibitor, single point].
In the case of COc1cccc(-c2cc(C(=O)NCc3ccco3)c3ccccc3n2)c1, the Potency was inconclusive [inhibitor, partial curve].
Nc1nc(-c2ccco2)cs1 was tested, and the Potency was inconclusive [inhibitor, single point].
With Cc1cccc(NC(=O)CC2SC(=O)N(c3ccccc3)C2=O)c1 (stereo unspecified) the Potency was inconclusive [inhibitor, full curve].
In the case of O=C(O)CCCN1C(=O)/C(=C\c2ccco2)SC1=S, the Potency was inconclusive [inhibitor, partial curve].
For CC(C)c1cc(Nc2cccc(O)c2)cc(C(C)C)c1O, the Potency was active: 8.91 µM.

Source: PubChem BioAssay AID485364 (National Center for Advancing Translational Sciences (NCATS), 2010)
% is scaled to controls: 0 for no effect and ±100 for the full control effect; potency is read from the fitted curve at half-maximal effect; tags tell the direction and shape of the fitted curve.
Also: nearly all actives have a fitted effect of over 60% in size.
